Measured values taken from patent US7259004B1, “Endophytic streptomycetes from higher plants with biological activity” (Montana State University, priority 2002, dated 2007).

What was measured:
Type in all cases: cell-based
Conditions in all cases: Table 15
[1] = tested on: Bacillus anthracis 40/BA 100
Bacillus anthracis 14578 = tested on: Bacillus anthracis 14578
Bacillus anthracis 28 = tested on: Bacillus anthracis 28
Bacillus anthracis 62-8 = tested on: Bacillus anthracis 62-8

kakadumycin A
MIC Bacillus anthracis 40/BA 100 [1]: 0.3 micrograms/ml
MIC Bacillus anthracis 14578 (Bacillus anthracis 14578): 0.55 micrograms/ml
MIC Bacillus anthracis 28 (Bacillus anthracis 28): 0.43 micrograms/ml
MIC Bacillus anthracis 62-8 (Bacillus anthracis 62-8): 0.41 micrograms/ml
